The structures appear in SMILES notation. Over roughly 2,900 compounds, “NF-kB SEAP reporter activity, fold change vs agonist alone” has its median near 0.99; the highest 2% begin near 2.6. Some of the results follow.

The results in this text go back to the supplement of paper PMC10037445.

Test [1] has as its system RAW-Dual. The test can be described thus: NF-kB SEAP reporter activity, fold change vs agonist alone; higher = enhanced NF-kB activity. A digest of the protocol:
(§1)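 Supernatant from RAW-Dual macrophages was read after 20 hours for IRF by QuantiLuc luminescence and for NF-κB by QuantiBlue absorbance at 620 nm. The cells (50,000 cells/well in DMEM, 384-well plates, 37 °C, 5% CO2) had received 50 nL of library stock by pin tool and, 1 h later, a PRR agonist. Reporter activity is expressed relative to agonist-alone wells as fold change, and wells were flagged cytotoxic if IncuCyte confluency was under 70% of agonist controls in both mask sets.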

Test [2] relates to RAW-Dual. The test can be described thus: NF-kB SEAP reporter activity, fold change vs agonist alone; cytotoxicity flag (confluency mask): not cytotoxic; higher = enhanced NF-kB activity. In a few lines:
as §1

The subject of test [3] is RAW-Dual. The test can be described thus: NF-kB SEAP reporter activity, fold change vs agonist alone; cytotoxicity flag (confluency mask): cytotoxic (confluency <70% of control); higher = enhanced NF-kB activity. In a few lines: as §1
Where [4] appears, read: library stock concentration (final ~1000-fold dilution): 10 mM, cytotoxicity flag (confluency mask): not cytotoxic, agonist: Imiquimod (TLR7) […].
Where [5] appears, read: library stock concentration (final ~1000-fold dilution): 10 mM, cytotoxicity flag (confluency mask): not cytotoxic, agonist: MPLA (TLR4) […].
Setting [6] is: agonist: ODN 1826 (TLR9) 0.5 ug/mL.
Where [7] appears, read: agonist: Pam2CSK4 (TLR2/6) 0.1 ug/mL.
Where [8] appears, read: agonist: Pam3CSK4 (TLR2/1) 0.1 ug/mL.
Setting [9] is: library stock concentration (final ~1000-fold dilution): 10 mM, cytotoxicity flag (confluency mask): cytotoxic (confluency <70% of control), agonist: Imiquimod (TLR7) […].
[10] abbreviates: library stock concentration (final ~1000-fold dilution): 10 mM, cytotoxicity flag (confluency mask): cytotoxic (confluency <70% of control), agonist: MPLA (TLR4) […].

`COc1ccc(-c2coc3cc(O[C@@H]4O[C@H](CO)[C@@H](O)[C@H](O)[C@H]4O)ccc3c2=O)cc1O`: the “NF-kB SEAP reporter activity” value worked out at 1.52 in the test on RAW-Dual [1] (setting [4]) and 1.6 with RAW-Dual [1] (setting [5]).

Consider `COc1ccc(-c2coc3cc(O[C@@H]4O[C@H](CO)[C@@H](O)[C@H](O)[C@H]4O)ccc3c2=O)cc1O` (library stock concentration (final ~1000-fold dilution): 10 mM), for which the “NF-kB SEAP reporter activity” value came out at 1.76 with RAW-Dual [2] (agonist: LPS (TLR4) 0.1 ug/mL), 1.27 in the test with RAW-Dual [2] (setting [6]), 1.26 in the test on RAW-Dual [2] (setting [7]) and 2.04 in the test on RAW-Dual [2] (setting [8]).

With `CNC(=O)c1ccc2cc(C3(O)CCn4cncc43)ccc2c1` (stereo not drawn), the “NF-kB SEAP reporter activity” value amounted to 0.916 in the test on RAW-Dual [1] (setting [4]) and 1.07 with RAW-Dual [1] (setting [5]).

For the compound `CNC(=O)c1ccc2cc(C3(O)CCn4cncc43)ccc2c1` (stereo not drawn) (library stock concentration (final ~1000-fold dilution): 10 mM), the “NF-kB SEAP reporter activity” value was determined as 1.22 with RAW-Dual [2] (agonist: LPS (TLR4) 0.1 ug/mL), 1.01 in the test on RAW-Dual [2] (setting [6]), 1.02 in the test on RAW-Dual [2] (setting [7]) and 1.15 in the test on RAW-Dual [2] (setting [8]).

`Cc1nc2ccc(NC(=O)Nc3ccnc4cccnc34)cc2o1`: the “NF-kB SEAP reporter activity” value in the test on RAW-Dual [1] (setting [4]) and with RAW-Dual [1] (setting [5]) was 1.06 in each case.

`Cc1nc2ccc(NC(=O)Nc3ccnc4cccnc34)cc2o1` (library stock concentration (final ~1000-fold dilution): 10 mM): the “NF-kB SEAP reporter activity” value was determined as 1.66 with RAW-Dual [2] (agonist: LPS (TLR4) 0.1 ug/mL), 1.06 in the test with RAW-Dual [2] (setting [6]), 1.23 with RAW-Dual [2] (setting [7]) and 0.988 in the test with RAW-Dual [2] (setting [8]).

As to `Oc1nc(-c2ccc(C(F)(F)F)cc2)nc2c1CSCC2`, the “NF-kB SEAP reporter activity” value in the test on RAW-Dual [1] (setting [4]) stood at 1.15; with RAW-Dual [1] (setting [5]), 1.07.

With `Oc1nc(-c2ccc(C(F)(F)F)cc2)nc2c1CSCC2` (library stock concentration (final ~1000-fold dilution): 10 mM), the “NF-kB SEAP reporter activity” value in the test on RAW-Dual [2] (agonist: LPS (TLR4) 0.1 ug/mL) amounted to 1.14; in the test on RAW-Dual [2] (setting [6]) it was 1.09; in the test with RAW-Dual [2] (setting [7]), 1.25; with RAW-Dual [2] (setting [8]) it was 1.92.

On to `NC(=O)N1c2ccccc2CC(=O)c2ccccc21` (library stock concentration (final ~1000-fold dilution): 10 mM), for which the “NF-kB SEAP reporter activity” value in the test with RAW-Dual [2] (agonist: LPS (TLR4) 0.1 ug/mL) was found to be 1.08; in the test on RAW-Dual [2] (setting [6]), 0.937; with RAW-Dual [2] (setting [7]), 0.981; in the test on RAW-Dual [2] (setting [8]) it was 0.93.

Regarding `NC(=O)N1c2ccccc2CC(=O)c2ccccc21`, the “NF-kB SEAP reporter activity” value with RAW-Dual [1] (setting [4]) came out at 0.767; with RAW-Dual [1] (setting [5]), 0.876.

With `Cc1cccn2c(=O)c(-c3nnn[nH]3)cnc12`, the “NF-kB SEAP reporter activity” value worked out at 0.935 in the test with RAW-Dual [1] (library stock concentration (final ~1000-fold dilution): 10 mM water, cytotoxicity flag (confluency mask): not cytotoxic, agonist: Imiquimod (TLR7) […]) and 1.02 with RAW-Dual [1] (library stock concentration (final ~1000-fold dilution): 10 mM water, cytotoxicity flag (confluency mask): not cytotoxic, agonist: MPLA (TLR4) […]).

Consider `Cc1cccn2c(=O)c(-c3nnn[nH]3)cnc12` (library stock concentration (final ~1000-fold dilution): 10 mM water), for which the “NF-kB SEAP reporter activity” value with RAW-Dual [2] (agonist: LPS (TLR4) 0.1 ug/mL) worked out at 1.13; in the test with RAW-Dual [2] (setting [6]), 1.16; in the test with RAW-Dual [2] (setting [7]) it was 1.21; in the test with RAW-Dual [2] (setting [8]) it was 1.13.

For `CCC(=O)OC1CC(=O)OC(C)C/C=C/C=C/C(O)C(C)CC(CC=O)C(OC2OC(C)C(OC3CC(C)(O)C(OC(=O)CC)C(C)O3)C(N(C)C)C2O)C1OC` (stereo not drawn) (library stock concentration (final ~1000-fold dilution): 10 mM), the “NF-kB SEAP reporter activity” value with RAW-Dual [2] (agonist: LPS (TLR4) 0.1 ug/mL) is 0.93; with RAW-Dual [2] (setting [6]), 1.02; with RAW-Dual [2] (setting [7]), 1.06; with RAW-Dual [2] (setting [8]), 1.21.

On to `CCC(=O)OC1CC(=O)OC(C)C/C=C/C=C/C(O)C(C)CC(CC=O)C(OC2OC(C)C(OC3CC(C)(O)C(OC(=O)CC)C(C)O3)C(N(C)C)C2O)C1OC` (stereo not drawn), for which the figures for the “NF-kB SEAP reporter activity” value in the test on RAW-Dual [1] (setting [4]) and in the test on RAW-Dual [1] (setting [5]) were 0.961 and 1.07, respectively.

For the compound `CCOCCn1c(N2CCCN(C)CC2)nc2ccccc21` (library stock concentration (final ~1000-fold dilution): 10 mM), the “NF-kB SEAP reporter activity” value in the test on RAW-Dual [2] (agonist: LPS (TLR4) 0.1 ug/mL) amounted to 0.9; with RAW-Dual [2] (setting [6]) it was 0.825; in the test on RAW-Dual [2] (setting [7]) it was 1.06; in the test with RAW-Dual [2] (setting [8]), 0.705.

In the case of `CCOCCn1c(N2CCCN(C)CC2)nc2ccccc21`, the “NF-kB SEAP reporter activity” value in the test with RAW-Dual [1] (setting [4]) is 0.877; in the test on RAW-Dual [1] (setting [5]), 1.05.

Take `CC(C)(C)OC(=O)Nc1ccc(-c2cc(C(=O)NCCCCCCC(=O)NO)no2)cc1`: the “NF-kB SEAP reporter activity” value in the test on RAW-Dual [1] (setting [9]) stood at 0.912; with RAW-Dual [1] (setting [10]), 1.81.

Take `CC(C)(C)OC(=O)Nc1ccc(-c2cc(C(=O)NCCCCCCC(=O)NO)no2)cc1` (library stock concentration (final ~1000-fold dilution): 10 mM): the “NF-kB SEAP reporter activity” value is 6.9 with RAW-Dual [3] (agonist: LPS (TLR4) 0.1 ug/mL), 1.11 in the test on RAW-Dual [3] (setting [6]), 1.33 in the test with RAW-Dual [3] (setting [7]) and 1.21 in the test with RAW-Dual [3] (setting [8]).

Turning to `Cc1nc(C)c(C)nc1C` (library stock concentration (final ~1000-fold dilution): 10 mM), the “NF-kB SEAP reporter activity” value in the test on RAW-Dual [2] (agonist: LPS (TLR4) 0.1 ug/mL) came out at 0.93; with RAW-Dual [2] (setting [6]), 0.963; in the test with RAW-Dual [2] (setting [7]) it was 0.996; in the test with RAW-Dual [2] (setting [8]), 1.02.

Consider `Cc1nc(C)c(C)nc1C`, for which the results for the “NF-kB SEAP reporter activity” value in the test with RAW-Dual [1] (setting [4]) and with RAW-Dual [1] (setting [5]) were 0.938 and 0.943, respectively.

Regarding `CCS(=O)(=O)N1CCN(c2ccc(Nc3ncc(C(N)=O)c(NC4CC4)n3)cc2)CC1.Cl`, the “NF-kB SEAP reporter activity” value in the test with RAW-Dual [1] (setting [9]) is 0.23; with RAW-Dual [1] (setting [10]), 0.398.

With `CCS(=O)(=O)N1CCN(c2ccc(Nc3ncc(C(N)=O)c(NC4CC4)n3)cc2)CC1.Cl` (library stock concentration (final ~1000-fold dilution): 10 mM), the “NF-kB SEAP reporter activity” value in the test on RAW-Dual [3] (agonist: LPS (TLR4) 0.1 ug/mL) was 0.273; with RAW-Dual [3] (setting [6]) it was 0.218; in the test on RAW-Dual [3] (setting [7]), 0.0746; with RAW-Dual [3] (setting [8]) it was 0.121.

As to `Cc1cc([N+](=O)[O-])c(NS(=O)(=O)c2cccc(C(=O)O)c2)cc1-c1cccnc1`, the results for the “NF-kB SEAP reporter activity” value in the test with RAW-Dual [1] (setting [4]) and in the test on RAW-Dual [1] (setting [5]) were 0.932 and 0.946, respectively.

On to `Cc1cc([N+](=O)[O-])c(NS(=O)(=O)c2cccc(C(=O)O)c2)cc1-c1cccnc1` (library stock concentration (final ~1000-fold dilution): 10 mM), for which the “NF-kB SEAP reporter activity” value in the test on RAW-Dual [2] (agonist: LPS (TLR4) 0.1 ug/mL) turned out to be 1.12; with RAW-Dual [2] (setting [6]), 0.852; in the test on RAW-Dual [2] (setting [7]), 1.02; in the test on RAW-Dual [2] (setting [8]) it was 0.926.

Take `CC1(N)CCN(c2cnc(-c3cccc(Cl)c3Cl)c(N)n2)CC1.Cl`: the entries for the “NF-kB SEAP reporter activity” value in the test with RAW-Dual [1] (setting [4]) and in the test with RAW-Dual [1] (setting [5]) were 1.11 and 1.18, respectively.

Consider `CC1(N)CCN(c2cnc(-c3cccc(Cl)c3Cl)c(N)n2)CC1.Cl` (library stock concentration (final ~1000-fold dilution): 10 mM), for which the “NF-kB SEAP reporter activity” value came out at 1.2 in the test with RAW-Dual [2] (agonist: LPS (TLR4) 0.1 ug/mL), 0.647 in the test on RAW-Dual [2] (setting [6]), 0.778 in the test on RAW-Dual [2] (setting [7]) and 0.701 in the test with RAW-Dual [2] (setting [8]).
